This is an account of results in PMC10185812.

The target in test [1] is T1, NEK1 D1277A (lentiviral, CMV promoter, in NEK1-KO cells) (human) (UniProt Q96PY6).
T1 sequence: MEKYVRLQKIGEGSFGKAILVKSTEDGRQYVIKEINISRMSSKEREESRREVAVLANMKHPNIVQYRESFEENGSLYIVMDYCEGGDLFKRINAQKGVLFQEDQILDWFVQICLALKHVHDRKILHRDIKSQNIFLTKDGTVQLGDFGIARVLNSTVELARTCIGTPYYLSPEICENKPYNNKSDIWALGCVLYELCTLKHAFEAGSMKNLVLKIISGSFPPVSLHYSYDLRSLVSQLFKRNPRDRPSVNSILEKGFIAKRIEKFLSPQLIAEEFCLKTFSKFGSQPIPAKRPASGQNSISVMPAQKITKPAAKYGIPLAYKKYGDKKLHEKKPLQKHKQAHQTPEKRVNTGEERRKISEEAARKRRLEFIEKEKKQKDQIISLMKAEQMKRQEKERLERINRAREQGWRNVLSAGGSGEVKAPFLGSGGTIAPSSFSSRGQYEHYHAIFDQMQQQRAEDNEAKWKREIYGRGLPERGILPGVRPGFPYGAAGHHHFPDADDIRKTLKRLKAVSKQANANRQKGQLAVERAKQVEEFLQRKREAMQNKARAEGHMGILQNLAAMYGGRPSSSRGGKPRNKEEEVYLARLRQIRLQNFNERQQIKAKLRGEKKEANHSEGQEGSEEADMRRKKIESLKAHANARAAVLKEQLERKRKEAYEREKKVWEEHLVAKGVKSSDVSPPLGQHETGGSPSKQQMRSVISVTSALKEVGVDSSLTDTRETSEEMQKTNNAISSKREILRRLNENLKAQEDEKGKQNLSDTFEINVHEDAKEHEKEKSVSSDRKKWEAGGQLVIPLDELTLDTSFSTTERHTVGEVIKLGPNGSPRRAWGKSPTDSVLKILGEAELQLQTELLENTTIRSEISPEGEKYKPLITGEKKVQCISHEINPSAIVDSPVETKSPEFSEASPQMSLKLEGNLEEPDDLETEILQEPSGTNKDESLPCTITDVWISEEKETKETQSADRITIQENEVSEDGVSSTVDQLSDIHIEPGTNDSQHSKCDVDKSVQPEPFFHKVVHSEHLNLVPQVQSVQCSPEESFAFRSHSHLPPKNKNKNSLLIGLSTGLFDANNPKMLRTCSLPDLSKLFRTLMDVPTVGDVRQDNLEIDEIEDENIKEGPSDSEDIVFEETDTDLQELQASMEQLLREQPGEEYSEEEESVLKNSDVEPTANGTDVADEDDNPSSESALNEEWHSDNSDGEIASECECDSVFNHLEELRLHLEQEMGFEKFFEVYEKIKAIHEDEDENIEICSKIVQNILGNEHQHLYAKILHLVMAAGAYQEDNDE
In words: co-IP; NEK1-KO or C21ORF2-KO ARPE-19 cells transduced with lentivirus for WT or mutated NEK1 (CMV promoter) or C21ORF2 (UbC promoter); immunoprecipitation with antibodies against NEK1 or C21ORF2; immunoblotting. In general terms: Immunoblotting shows a protein as a band on a membrane.

Test [2] addresses T2, NEK1 (endogenous) (human (endogenous in ARPE-19, HeLa, HEK293, U2-O-S)) (UniProt Q96PY6).
T2 sequence: T1 sequence with A1277D
In words: co-IP; pooled gel filtration fractions of ARPE-19 extract; three rounds of immunodepletion with antibodies against NEK1 or C21ORF2 or sheep IgG; 4°C; washes with 50 mM Tris pH 7.4, 500 mM NaCl, 1% Triton X-100; beads and supernatants immunoblotted. For orientation: Size exclusion chromatography separates by hydrodynamic size, large species first.

Test [3] has as its target T2, NEK1 (endogenous) (human (endogenous in ARPE-19, HeLa, HEK293, U2-O-S)). In words: co-IP; ARPE-19 cell extracts; immunoprecipitation with in-house sheep antibodies against NEK1 or C21ORF2 (sheep IgG as control); 4°C; washes with 50 mM Tris pH 7.4, 500 mM NaCl, 1% Triton X-100; immunoblotting.
Test [4] has the same target. In words: co-IP; HeLa, HEK293 and U2-O-S cell lysates; immunoprecipitation with in-house sheep anti-C21ORF2 or anti-NEK1 antibodies (sheep IgG beads as control); immunoblotting.
Test [5] shares this target. In words: SEC; total extracts of ARPE-19 cells (parental, NEK1-KO, C21ORF2-KO) on a Superose 6 Increase 10/300 column; fractions immunoblotted.

Changes are numbered by the printed parent chain. These are yes or no findings as the source states them, for the method shown. For some assays here: Binding seen in cells or lysates may run through a third protein. Some results given as binding are weak or reduced against the parent protein; the word gives no strength.

B1: C21ORF2 (endogenous) (protein, UniProt O43822-1 1-256)
chain: MKLTRKMVLTRAKASELHSVRKLNCWGSRLTDISICQEMPSLEVITLSVNSISTLEPVSRCQRLSELYLRRNRIPSLAELFYLKGLPRLRVLWLAENPCCGTSPHRYRMTVLRTLPRLQKLDNQAVTEEELSRALSEGEEITAAPEREGTGHGGPKLCCTLSSLSSAAETGRDPLDSEEEATSGAQDERGLKPPSRGQFPSLSARDASSSHRGRNVLTAILLLLRELDAEGLEAVQQTVGSRLQALRGEEVQEHAE
B1: the binding entry in test [1] was “no binding”; in test [2] it was “binds”; in test [3], “binds”; in test [4], “binds”; in test [5], “binds”.
